# According to PubChem BioAssay AID445 (National Center for Advancing Translational Sciences (NCATS), 2006):
# Among all 110,000 compounds or so, about 40 (0.04%) were called active. Inconclusive means that the source gave no clear call. Such entries were picked first, then a sample of the others. Calls come from the whole dose curve; as a rule, active = well fitted curve in the direction sought with a large enough effect in the signal ratio (not every such curve was filed as active); inconclusive = small, poorly fitted or top-dose-only effect, or a change in a side signal; inactive = flat fitted curve, though single readings scatter; the % refers to the signal ratio. A potency beside an inconclusive call is a rough fit, not a confirmed value.
# Experiment: IkB Signaling;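 for IkBa stabilization activation: 0% = basal untreated cells and 100% = reference inhibitor full response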
# Conditions: ABC-DLBCL IkBa-CBG/CBR dual luciferase ratio (green luciferase fused to IkBa over red control in OCI-Ly3 lymphoma cells), 4 h; IkBa stabilization activation: at 57.1 µM (top of the series), scaled: untreated 0%, proteasome inhibitor 100% unless noted
# Method in brief: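 Luminescence ratio of IκBα-fused green versus native red beetle luciferase in OCI-Ly3 cells, 4 h post-doxycycline with compound; red signal alone, scaled from basal (0%) to zero light (-100%), flagged nonspecific or cytotoxic effects.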
# Potency is the fitted concentration of half-maximal effect.
SMILES,IkBa stabilization activation,Potency
O=C1c2[nH]nc(-c3ccccc3O)c2C(c2ccc(F)cc2)N1Cc1ccco1 (configuration not stated),inconclusive: -3.71% [signal inhibitor],
O=C(Cn1cc(C(=O)c2ccco2)c2ccccc21)Nc1ccc(Br)cc1,inconclusive: 15.3% [signal inhibitor],
COc1ccc(C)cc1NC(=O)CN1CCN(c2ccccc2F)CC1,inactive: 0.249%,
c1ccc2oc(SCc3nc4ccccc4s3)nc2c1,inconclusive: 7.43% [signal inhibitor],
CCOC(=O)c1cnn(-c2ccc(C(=O)Nc3cc(OC)c(OC)c(OC)c3)cc2)c1N,inconclusive: 1.15% [signal inhibitor],
O=C(CSc1ccccc1)N1CCc2c([nH]c3ccccc23)C1c1ccc(F)cc1 (configuration not stated),inconclusive: 1.19% [signal inhibitor],
CC1CCN(S(=O)(=O)c2cn(CC(=O)Nc3cccc(C(F)(F)F)c3)c(=O)c3ccccc23)CC1,inconclusive: 6.92% [signal inhibitor],
COc1cccc(C(=O)Nc2cccc(C(=O)OCc3cc(=O)n4nc(C5CC5)sc4n3)c2)c1,inconclusive: 15% [signal inhibitor],
Nc1c(-c2nc(-c3cccs3)no2)nnn1-c1ccc(Cl)cc1,inactive: -0.539%,
CCn1c(C(=O)NCCc2ccc(OC)c(OC)c2)cc2sc(Cl)cc21,inconclusive: 1.27% [signal inhibitor],
O=C(c1ccccc1)N1CCN(c2ccc(NCc3ccc4c(c3)OCO4)cc2)CC1,inconclusive: -0.0821% [signal inhibitor],
COc1ccc(C(O)P(=O)(OC2CCCCC2)c2ccc(N(C)C)cc2)cc1OC (configuration not stated),inactive: -7.6%,
COc1cccc(NC(=O)c2ccc3nc(CCc4ccccc4)oc3c2)c1,inconclusive: -1.41% [signal inhibitor],
CCCCNc1nc(Oc2ccc(OCC)nn2)nc(N2CCOCC2)n1,inconclusive: 5.85% [signal inhibitor],
c1ccc2c(NC3CC3)nc(-c3ccoc3)nc2c1,"inactive: 1.34% [at 11.4 µM, scaled: untreated 0%, proteasome inhibitor 100%]",
COc1ccc(Cl)cc1NC(=O)c1c(NCc2ccc(C)o2)sc2c1CCCCC2,inconclusive: 1.16% [signal inhibitor],
Cc1ccc(S(=O)(=O)C(C#N)c2nc3ccccc3nc2OC(C)C)cc1 (configuration not stated),inconclusive: 1.67% [signal inhibitor],
COc1ccccc1CNC(=O)C1CCCN(c2nc3ccccc3n3cccc23)C1 (configuration not stated),inactive: -0.0446%,
COCCNC(=O)CN(C(=O)Cn1nnc2ccccc21)c1ccccc1,inactive: -0.821%,
CCCCOc1ccc(-c2nn(-c3ccccc3)cc2C2NC(=O)NC(C)=C2C(=O)OC)cc1 (configuration not stated),inconclusive: 2.45% [signal inhibitor],
CC(=O)N1CCc2cc(Br)cc(S(=O)(=O)N3CCN(c4cccc(C(F)(F)F)c4)CC3)c21,inactive: 0.415%,
CCCCc1n[nH]c2c1/C(=N/O)CC(c1ccccc1)C2 (configuration not stated),inconclusive: 1.71% [signal inhibitor],
COC(=O)Cc1c(C)c2cc(Cl)c(OC(=O)c3ccco3)cc2oc1=O,inactive: 2.39%,
CCCCN(C)c1nc2c(S(=O)(=O)c3ccc(CC)cc3)nnn2c2ccc(Cl)cc12,inconclusive: 3.79% [signal inhibitor],

SMILES,IkBa stabilization activation,Potency
COc1ccccc1NC(=O)C1=C(C)Nc2c(C(=O)Nc3ccc(F)cc3)cnn2C1c1cccc([N+](=O)[O-])c1 (configuration not stated),inconclusive: 5.46% [signal inhibitor],
CC1CCCN(C(=O)CSc2nnc(-c3c[nH]c4ccccc34)o2)C1 (configuration not stated),inconclusive: 2.91% [signal inhibitor],
CCOC(=O)c1ccc(NC(=O)c2c(-c3c(F)cccc3Cl)noc2C)cc1,inconclusive: 8.96% [signal inhibitor],
COc1ccccc1C(=O)NCc1ccncc1,inactive: 2.43%,
c1ccc2nc3c(nc2c1)[nH]c1ccccc13,inactive: -3.58%,
COC(=O)c1ccccc1NC(=O)c1ccc(COc2ccccc2Cl)o1,inactive: -2.65%,
CC(C)Sc1oc(-c2cccs2)nc1S(=O)(=O)c1ccc(Cl)cc1,inconclusive: -0.681% [signal inhibitor],
NCCNC(=S)S,"inactive: 0.854% [at 11.4 µM, scaled: untreated 0%, proteasome inhibitor 100%]",
N#Cc1c(NC(NC(=O)c2ccco2)C(=O)c2ccccc2)sc2c1CCCC2 (configuration not stated),inconclusive: -3.61% [signal inhibitor],
Cc1ccc(CNC(=O)c2ccc(Cn3c(=O)c4ccccc4n(CC(=O)Nc4ccc(C)cc4C)c3=O)cc2)cc1,,"inconclusive: 5.01 µM [rising, full curve]"
COc1cc(NC(=O)c2cc(-c3cccs3)on2)cc(OC)c1OC,,"inconclusive: 31.6 µM [signal inhibitor, single point]"
CCn1c2ccccc2c2cc(CN3CCN(Cc4ccccc4F)CC3)ccc21,inconclusive: 10.7% [signal inhibitor],
COc1ccc(-c2cc(C(F)(F)F)nc(S(=O)(=O)CCCC(=O)Nc3cccc(O)c3)n2)cc1OC,,inconclusive: 3.98 µM [signal inhibitor]
Cc1cccc(N2CCN(c3nc4ccccc4n4cnnc34)CC2)c1C,inactive: 5.68%,
CCc1ccc(NCc2cc3cc4c(cc3n(CC(=O)Nc3ccc(C)cc3)c2=O)OCO4)cc1,inconclusive: 3.45% [signal inhibitor],
CCOc1ccc(NC(=O)C2CCCN(S(=O)(=O)c3cccc4nonc34)C2)cc1 (configuration not stated),inconclusive: 2.39% [signal inhibitor],
Cc1ccc(Nc2c(-c3cccs3)nc3nc(C)cc(C)n23)cc1,inconclusive: -2.96% [signal inhibitor],
Cc1oc2ncnc(N3CCCCC3)c2c1C(=O)N1CCN(c2cccc(C(F)(F)F)c2)CC1,inconclusive: 2.07% [signal inhibitor],
CC(=O)N[C@H]1[C@@H](O[C@@H](C)C(=O)O)[C@H](O)[C@H](CO)O[C@@H]1O,"inactive: 0.809% [at 25.6 µM, scaled: untreated 0%, proteasome inhibitor 100%]",
Cc1ccc(-n2ncc(C(=O)NCc3ccccc3C)c2-n2cccc2)cc1,inconclusive: -0.81% [signal inhibitor],
O=C(NCc1ccc2c(c1)CCN2C(=O)c1ccc(F)cc1)c1cc2ccccc2[nH]1,inconclusive: 1.45% [signal inhibitor],
COc1ccccc1CNC(=O)CCC(=O)N1CC2CCCN2c2ccccc21 (configuration not stated),inconclusive: 0.544% [signal inhibitor],
COc1ccc(-c2[nH]c3ccccc3c2SCCNC(=O)c2cc(OC)c(OC)c(OC)c2)cc1,inconclusive: 0.626% [signal inhibitor],
CC(=O)OCC(=O)[C@@]1(O)CC[C@@H]2[C@@H]3CCC4=CC(=O)CC[C@@]4(C)[C@H]3C(=O)C[C@]21C,inactive: 6.13%,

SMILES,IkBa stabilization activation,Potency
O=C(CSc1nnc(COc2ccccc2Cl)o1)NC(=O)NC1CCCC1,inconclusive: 8.12% [signal inhibitor],
Cc1nc(NC(=O)CN2CCOCC2)sc1-c1ccccc1,inconclusive: 0.603% [signal inhibitor],
COc1ccc(-c2nc(CSCC(=O)NCc3ccc4c(c3)OCO4)c(C)o2)cc1OC,inconclusive: 5.27% [signal inhibitor],
c1ccc(CNc2nc3c(-c4ccccc4)nnn3c3ccccc23)cc1,,"inconclusive: 2 µM [signal inhibitor, full curve]"
Cc1ccc(-n2c(SCC(=O)Nc3ccc4c(c3)OCO4)nnc2-c2ccoc2C)cc1,inconclusive: 1.09% [signal inhibitor],
O=C1CCCCC1Sc1nnc(Cc2cccs2)n1CCc1ccccc1 (configuration not stated),inactive: 0.809%,
O=C(Cc1ccc(Cl)cc1)Nc1ccc2nn(-c3ccc(Cl)cc3)nc2c1,inconclusive: 16.4% [signal inhibitor],
O=C(O)c1cc(-n2c(/C=C\c3ccc(F)cc3)nc3ccccc3c2=O)ccc1Cl,inconclusive: 7.56% [signal inhibitor],
O=C(NCc1ccc(Cl)cc1)c1cnc(N2CCCCC2)c2ccccc12,inconclusive: -1.53% [signal inhibitor],
O=c1cc(CSc2nnc(-c3ccccc3)o2)c2ccccc2[nH]1,inactive: 1.13%,
COc1ccc(CNC(=O)C2CCN(Cc3nc(-c4ccc(Cl)cc4)oc3C)CC2)cc1,inconclusive: -0.77% [signal inhibitor],
Nc1ccc(-c2nc3ccccc3[nH]2)cc1,inactive: 16.1%,
C(=N\n1cnnc1)/c1cn(Cc2ccccc2)c2ccccc12,inactive: 1%,
Cn1nnnc1Sc1ncnc2scc(-c3ccc(F)cc3)c12,inconclusive: 6.95% [signal inhibitor],
COc1ccccc1-c1nc(-c2ccncc2)no1,inactive: 2.98%,
COc1ccc(C2=NOC(C(=O)Nc3ccc(C(C)=O)cc3)C2)cc1OC (configuration not stated),inactive: -0.167%,
OC(CNCc1ccco1)COc1ccccc1 (configuration not stated),inactive: 1.18%,
Cc1c(S(=O)(=O)c2cccc(Cl)c2)nnn1-c1cccc(C(F)(F)F)c1,inconclusive: 0.464% [signal inhibitor],
COc1cc(C(=O)Nc2ccc3nc(SCc4ccc(C)cc4)sc3c2)cc(OC)c1OC,inconclusive: 0.411% [signal inhibitor],
CN(C)CC(C(=O)c1ccccc1)c1ccccc1 (configuration not stated),,"inconclusive: 3.98 µM [rising, single point]"
COc1ccc2c(c1OC)C(=O)O[C@@H]2[C@H]1c2c(cc3c(c2OC)OCO3)CCN1C,inactive: 0.426%,
CCCC(=O)N1CCN(c2nc3c(OC)ccc(C)c3s2)CC1,inactive: -4.62%,
CC(=O)c1ccc(S(=O)(=O)Nc2cccc(-c3ccc(N4CCCCCC4)nn3)c2)cc1,inactive: -3.56%,
CCCC(=O)Nc1cc(Cl)ccc1N1CCN(C(=O)CC)CC1,inactive: -5.48%,
